Measurements: PMC11995724, “Antibiotic target discovery by integrated phenotypic and activity-based profiling of electrophilic fragments” (Cell chemical biology, 2025)
About 75 (2%) of roughly 3,200 compounds showed an effect of 50% or more. The list shows a part of the results.

test system: T1, S. aureus MSSA476; parameters: species or system S. aureus MSSA476 (TSB) or V. cholerae SAD30 (LB); 384-well bacterial growth screen at 25 uM, OD600 relative to DMSO control; settings: relative growth, OD600, TSB; 25 µM; inhibitor
T1 construct: MSSA476

Point of comparison: `C=CC(=O)Nc1cc(NC(=O)C2CCC2)ccc1F` [2-E10, N-[4-fluoro-3-(prop-2-enamido)phenyl]cyclobutanecarboxamide], “% of control remaining” value 111.749%. Against it:
- Cc1cc(C(=O)CCl)c(C)c(C)c1C [10-I06, 2-chloro-1-(2,3,4,5-tetramethylphenyl)ethan-1-one] — higher, 130.313%
- Cc1ccc(CC(=O)CCl)cc1 [10-O13, 1-chloro-3-(4-methylphenyl)propan-2-one] — lower, 111.563%
- C=CC(=O)NCc1cc2cc(C)ccc2o1 [3-L14, N-[(5-methyl-1-benzofuran-2-yl)methyl]prop-2-enamide] — lower, 102.743%
- CC(Cl)C(=O)NCc1cc(C(F)F)nn1C (centres unmarked) [6-H14, 2-chloro-N-{[3-(difluoromethyl)-1-methyl-1H-pyrazol-5-yl]methyl}propanamide] — lower, 97.6585%
- C=CC(=O)N1CCC(C(=O)NC2(CO)CCSCC2)CC1 [3-H07, N-[4-(hydroxymethyl)thian-4-yl]-1-(prop-2-enoyl)piperidine-4-carboxamide] — lower, 98.5633%
- C=CC(=O)N1CCOCC2(COCCN2C)C1 (centres unmarked) [3-J14, 1-{1-methyl-4,8-dioxa-1,11-diazaspiro[5.6]dodecan-11-yl}prop-2-en-1-one] — lower, 109.012%
- O=C(CCl)N1N=C(c2cccs2)CC1c1ccc(F)cc1 (centres unmarked) [4-O20, 2-chloro-1-[5-(4-fluorophenyl)-3-(thiophen-2-yl)-4,5-dihydro-1H-pyrazol-1-yl]ethan-1-one] — higher, 137.589%
- COc1ccccc1N=Nc1ccc(NC(=O)CCl)cc1C [6-J06, 2-chloro-N-{4-[2-(2-methoxyphenyl)diazen-1-yl]-3-methylphenyl}acetamide] — higher, 112.341%
- C=CC(=O)Nc1ncc(C2CCCC(C)C2)s1 (centres unmarked) [1-J16, N-[5-(3-methylcyclohexyl)-1,3-thiazol-2-yl]prop-2-enamide] — higher, 146.286%
- COCc1nc(C2CCCCCN2C(=O)CCl)no1 (centres unmarked) [5-B07, 2-chloro-1-{2-[5-(methoxymethyl)-1,2,4-oxadiazol-3-yl]azepan-1-yl}ethan-1-one] — higher, 111.84%
- Cc1ccc(N2C(=O)C=CC2=O)c(C)c1 [10-N07, 1-(2,4-dimethylphenyl)-2,5-dihydro-1H-pyrrole-2,5-dione] — lower, 77.8125%
- CC(Cl)C(=O)N1CCCC(NS(=O)(=O)c2cccc(F)c2)C1 (centres unmarked) [7-C13, N-[1-(2-chloropropanoyl)piperidin-3-yl]-3-fluorobenzene-1-sulfonamide] — lower, 102.355%
- NC(=O)Nc1ccc(C(=O)CCl)cc1 [10-J07, [4-(2-chloroacetyl)phenyl]urea] — lower, 55.625%
- C=CC(=O)N1CCC(C(=O)NOC2CCCC2)(c2ccccc2)CC1 [3-K06, N-(cyclopentyloxy)-4-phenyl-1-(prop-2-enoyl)piperidine-4-carboxamide] — lower, 99.6082%
- C=CC(=O)N(C)Cc1cncn1C [2-D09, N-methyl-N-[(1-methyl-1H-imidazol-5-yl)methyl]prop-2-enamide] — lower, 106.527%
- CC(C)Cn1c(N)c(C(=O)CCl)c(=O)n(C)c1=O [10-M12, 6-amino-5-(2-chloroacetyl)-3-methyl-1-(2-methylpropyl)-1,2,3,4-tetrahydropyrimidine-2,4-dione] — lower, 108.75%
- O=C(CCl)NCc1nn(-c2ccccc2)c2c1CCC2 [7-B06, 2-chloro-N-({1-phenyl-1H,4H,5H,6H-cyclopenta[c]pyrazol-3-yl}methyl)acetamide] — lower, 77.551%
- CC(NC(=O)C(C#N)=Cc1cccc(F)c1)c1ccccc1 (centres unmarked) [8-L18, 2-cyano-3-(3-fluorophenyl)-N-(1-phenylethyl)prop-2-enamide] — lower, 72.6971%
- C=CC(=O)NC1(c2nccc(C(F)(F)F)n2)CC1 [2-D07, N-{1-[4-(trifluoromethyl)pyrimidin-2-yl]cyclopropyl}prop-2-enamide] — higher, 113.142%
- O=C(CCl)NCc1ccccc1Cn1cccn1 [5-P06, 2-chloro-N-({2-[(1H-pyrazol-1-yl)methyl]phenyl}methyl)acetamide] — lower, 89.9818%
- Cc1ccc(C(=O)c2c(NC(=O)CCl)sc3c2CCCC3)cc1 [6-A12, 2-chloro-N-[3-(4-methylbenzoyl)-4,5,6,7-tetrahydro-1-benzothiophen-2-yl]acetamide] — higher, 138.976%
- CN(CCc1ccccc1O)C(=O)CCl [7-P21, 2-chloro-N-[2-(2-hydroxyphenyl)ethyl]-N-methylacetamide] — lower, 103.611%
- CN(C1CCCCC1)S(=O)(=O)c1ccccc1NC(=O)CCl [5-N10, 2-chloro-N-{2-[cyclohexyl(methyl)sulfamoyl]phenyl}acetamide] — higher, 179.599%
- CC(c1ccc(C(F)(F)F)cc1F)N(C)C(=O)CCl (centres unmarked) [7-P18, 2-chloro-N-{1-[2-fluoro-4-(trifluoromethyl)phenyl]ethyl}-N-methylacetamide] — lower, 94.5055%
- N#CC(=Cc1cccc(O)c1)C(=O)NCc1ccco1 [9-F21, 2-cyano-N-[(furan-2-yl)methyl]-3-(3-hydroxyphenyl)prop-2-enamide] — lower, 111.161%
- NC(=O)c1ccc(NC(=O)CCl)cc1 [4-P04, 4-(2-chloroacetamido)benzamide] — lower, 95.2835%
- C=CC(=O)Nc1ccc(N(C)S(=O)(=O)CC)cc1 [3-H06, N-[4-(N-methylethanesulfonamido)phenyl]prop-2-enamide] — lower, 95.0805%
- C=CC(=O)NCCc1nnc(C(C)C)s1 [2-L05, N-{2-[5-(propan-2-yl)-1,3,4-thiadiazol-2-yl]ethyl}prop-2-enamide] — higher, 123.238%
- CC(Cl)C(=O)NCc1nnc2n1-c1ccccc1CC2 (centres unmarked) [6-N14, 2-chloro-N-({4H,5H-[1,2,4]triazolo[4,3-a]quinolin-1-yl}methyl)propanamide] — lower, 92.5366%
- CC(Cl)C(=O)Nc1ccc2c(c1)CCC2 (centres unmarked) [5-C19, 2-chloro-N-(2,3-dihydro-1H-inden-5-yl)propanamide] — higher, 116.94%
- CN(C1CCCCC1)S(=O)(=O)c1ccc(NC(=O)CCl)cc1 [5-E03, 2-chloro-N-{4-[cyclohexyl(methyl)sulfamoyl]phenyl}acetamide] — lower, 100.911%
- CC(Cl)C(=O)Nc1cccc(S(=O)(=O)N2CCCCC2)c1 (centres unmarked) [5-L12, 2-chloro-N-[3-(piperidine-1-sulfonyl)phenyl]propanamide] — lower, 97.6321%
- CC(=O)c1ccccc1NC(=O)C(C)Cl (centres unmarked) [5-O19, N-(2-acetylphenyl)-2-chloropropanamide] — lower, 103.825%
- C=CC(=O)Nc1cccc(OC(C)(C)C)c1 [3-G14, N-[3-(tert-butoxy)phenyl]prop-2-enamide] — lower, 91.2495%
- CC(=O)c1c(C)[nH]c(C(=O)C(C)Cl)c1C (centres unmarked) [10-P22, 1-(4-acetyl-3,5-dimethyl-1H-pyrrol-2-yl)-2-chloropropan-1-one] — higher, 113.125%
- N#CC(=Cc1cc2cc(F)ccc2o1)C(=O)NC(N)=O [8-C22, {2-cyano-2-[(5-fluoro-1-benzofuran-2-yl)methylidene]acetyl}urea] — lower, 73.6929%
- N#CC(=Cc1ccsc1)C(=O)NCc1ccco1 [9-H22, 2-cyano-N-[(furan-2-yl)methyl]-3-(thiophen-3-yl)prop-2-enamide] — lower, 88.6891%
- C=CC(=O)N1CCC(C(=O)N(C)C(C)c2sc(CC)nc2C)CC1 (centres unmarked) [2-P04, N-[1-(2-ethyl-4-methyl-1,3-thiazol-5-yl)ethyl]-N-methyl-1-(prop-2-enoyl)piperidine-4-carboxamide] — lower, 93.6466%
- CC(Cl)C(=O)Nc1ccccc1 (centres unmarked) [5-F10, 2-chloro-N-phenylpropanamide] — lower, 97.2678%
- CC(Cl)C(=O)Nc1cccc2ccccc12 (centres unmarked) [5-N12, 2-chloro-N-(naphthalen-1-yl)propanamide] — lower, 98.3607%
- Cc1ccc(C=C(C#N)C(=O)NC2CCCCC2)cc1C [8-G10, 2-cyano-N-cyclohexyl-3-(3,4-dimethylphenyl)prop-2-enamide] — lower, 108.216%
- CC(=O)Nc1ccc(C2=NN(C(=O)CCl)C(c3ccco3)C2)cc1 (centres unmarked) [4-G22, N-{4-[1-(2-chloroacetyl)-5-(furan-2-yl)-4,5-dihydro-1H-pyrazol-3-yl]phenyl}acetamide] — lower, 99.8571%
- O=C(CCl)NC1CCN(C(=O)C2COc3ccccc3O2)CC1 (centres unmarked) [5-C09, 2-chloro-N-[1-(2,3-dihydro-1,4-benzodioxine-2-carbonyl)piperidin-4-yl]acetamide] — higher, 129.69%
- C=CC(=O)N1CC(C(N)=O)Oc2ccccc21 (centres unmarked) [1-A09, 4-(prop-2-enoyl)-3,4-dihydro-2H-1,4-benzoxazine-2-carboxamide] — higher, 119.56%
- C=CC(=O)NCc1c(C(F)(F)F)coc1C [1-E17, N-{[2-methyl-4-(trifluoromethyl)furan-3-yl]methyl}prop-2-enamide] — lower, 104.44%
- N#CC(=Cc1ccc(O)c([N+](=O)[O-])c1)C(=O)Nc1ccccc1C(=O)O [9-G10, 2-[2-cyano-3-(4-hydroxy-3-nitrophenyl)prop-2-enamido]benzoic acid] — lower, 87.191%
